Test results: article PMC11905140
These are yes or no findings as the source states them, for the method shown. In cells and extracts the contact can be indirect. Some binding calls cover weakened binding; strength is not graded here.

Amino acid sequences for entries named in this document (tags omitted). A change or cut given only in a name is not applied to a line headed by its entry. Chains listed by the source or under a name are the forms on record and can include a tag or linker. Residues count along the entry.
UniProt O75362: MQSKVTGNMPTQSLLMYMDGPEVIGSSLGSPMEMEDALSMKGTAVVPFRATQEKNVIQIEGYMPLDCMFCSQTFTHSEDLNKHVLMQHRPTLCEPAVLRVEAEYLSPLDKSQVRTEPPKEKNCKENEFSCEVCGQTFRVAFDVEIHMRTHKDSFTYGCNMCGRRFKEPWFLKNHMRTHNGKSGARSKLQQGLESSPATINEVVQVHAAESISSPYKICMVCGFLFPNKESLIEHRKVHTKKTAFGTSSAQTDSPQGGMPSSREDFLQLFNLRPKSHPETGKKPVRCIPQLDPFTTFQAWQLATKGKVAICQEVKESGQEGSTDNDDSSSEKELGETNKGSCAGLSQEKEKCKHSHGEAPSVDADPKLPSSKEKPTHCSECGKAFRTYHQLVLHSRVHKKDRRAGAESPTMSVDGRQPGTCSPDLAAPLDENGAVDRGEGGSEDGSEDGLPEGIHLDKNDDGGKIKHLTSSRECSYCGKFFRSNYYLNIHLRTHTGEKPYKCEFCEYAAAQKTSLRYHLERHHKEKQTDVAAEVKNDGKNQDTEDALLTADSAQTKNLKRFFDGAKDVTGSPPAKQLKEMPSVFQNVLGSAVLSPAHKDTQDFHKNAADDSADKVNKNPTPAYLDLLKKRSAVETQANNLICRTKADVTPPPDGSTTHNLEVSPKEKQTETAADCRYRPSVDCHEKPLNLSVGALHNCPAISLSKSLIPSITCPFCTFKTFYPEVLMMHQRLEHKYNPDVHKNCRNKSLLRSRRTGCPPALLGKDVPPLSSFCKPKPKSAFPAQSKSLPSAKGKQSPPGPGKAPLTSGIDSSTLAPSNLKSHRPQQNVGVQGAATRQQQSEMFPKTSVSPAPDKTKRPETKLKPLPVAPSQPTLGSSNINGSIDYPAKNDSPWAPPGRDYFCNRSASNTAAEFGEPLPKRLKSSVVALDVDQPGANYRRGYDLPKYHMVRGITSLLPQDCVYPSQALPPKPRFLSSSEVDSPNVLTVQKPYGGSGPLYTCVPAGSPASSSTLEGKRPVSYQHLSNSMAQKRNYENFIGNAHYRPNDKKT
Flag-tagged ZNF217_(1-272) truncation: residues 1-272 of O75362
UniProt Q13547: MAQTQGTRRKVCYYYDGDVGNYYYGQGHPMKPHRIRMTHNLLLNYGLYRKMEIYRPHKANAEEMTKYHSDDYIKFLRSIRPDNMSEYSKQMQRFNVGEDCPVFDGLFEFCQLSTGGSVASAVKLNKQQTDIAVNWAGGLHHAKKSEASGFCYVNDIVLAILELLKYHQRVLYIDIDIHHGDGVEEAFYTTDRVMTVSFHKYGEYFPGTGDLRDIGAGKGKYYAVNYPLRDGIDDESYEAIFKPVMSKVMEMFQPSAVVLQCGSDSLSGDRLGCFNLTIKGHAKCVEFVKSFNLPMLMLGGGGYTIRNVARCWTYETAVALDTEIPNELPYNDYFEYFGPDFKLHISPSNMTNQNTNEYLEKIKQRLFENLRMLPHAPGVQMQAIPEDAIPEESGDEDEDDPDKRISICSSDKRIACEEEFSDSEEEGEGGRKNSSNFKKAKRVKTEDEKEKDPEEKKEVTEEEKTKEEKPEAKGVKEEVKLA
UniProt Q9H4Z3: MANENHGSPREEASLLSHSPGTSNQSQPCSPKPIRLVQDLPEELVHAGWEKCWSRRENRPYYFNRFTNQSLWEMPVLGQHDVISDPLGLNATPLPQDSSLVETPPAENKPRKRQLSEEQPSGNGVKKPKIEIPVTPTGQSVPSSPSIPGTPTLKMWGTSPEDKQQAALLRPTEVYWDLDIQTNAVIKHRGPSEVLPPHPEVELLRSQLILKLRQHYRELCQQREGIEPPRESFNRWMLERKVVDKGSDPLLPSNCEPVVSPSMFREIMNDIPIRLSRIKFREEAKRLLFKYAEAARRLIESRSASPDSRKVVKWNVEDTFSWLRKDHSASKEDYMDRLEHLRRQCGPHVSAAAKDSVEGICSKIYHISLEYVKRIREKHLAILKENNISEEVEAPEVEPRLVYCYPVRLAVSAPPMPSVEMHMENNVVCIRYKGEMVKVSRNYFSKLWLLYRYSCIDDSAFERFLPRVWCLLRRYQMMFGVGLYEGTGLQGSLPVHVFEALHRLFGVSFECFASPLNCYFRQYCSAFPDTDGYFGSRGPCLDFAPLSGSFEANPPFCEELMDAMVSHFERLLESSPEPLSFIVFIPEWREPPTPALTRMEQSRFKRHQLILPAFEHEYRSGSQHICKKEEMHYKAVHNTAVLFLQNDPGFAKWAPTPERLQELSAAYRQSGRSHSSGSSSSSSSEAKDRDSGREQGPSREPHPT
UniProt Q92769: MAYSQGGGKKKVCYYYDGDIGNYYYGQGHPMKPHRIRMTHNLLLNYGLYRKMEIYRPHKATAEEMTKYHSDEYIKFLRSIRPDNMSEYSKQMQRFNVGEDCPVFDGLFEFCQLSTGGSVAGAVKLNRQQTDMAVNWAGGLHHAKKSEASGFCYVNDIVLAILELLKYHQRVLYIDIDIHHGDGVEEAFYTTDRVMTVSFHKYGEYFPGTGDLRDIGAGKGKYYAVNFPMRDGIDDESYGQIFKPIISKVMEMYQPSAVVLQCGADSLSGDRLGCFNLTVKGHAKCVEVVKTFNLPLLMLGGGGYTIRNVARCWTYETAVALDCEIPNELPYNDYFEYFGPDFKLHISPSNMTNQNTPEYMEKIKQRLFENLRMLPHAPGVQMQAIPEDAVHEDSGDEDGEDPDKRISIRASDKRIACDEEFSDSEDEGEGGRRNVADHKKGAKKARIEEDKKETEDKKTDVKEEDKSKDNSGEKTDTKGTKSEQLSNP
UniProt Q9Y6M1: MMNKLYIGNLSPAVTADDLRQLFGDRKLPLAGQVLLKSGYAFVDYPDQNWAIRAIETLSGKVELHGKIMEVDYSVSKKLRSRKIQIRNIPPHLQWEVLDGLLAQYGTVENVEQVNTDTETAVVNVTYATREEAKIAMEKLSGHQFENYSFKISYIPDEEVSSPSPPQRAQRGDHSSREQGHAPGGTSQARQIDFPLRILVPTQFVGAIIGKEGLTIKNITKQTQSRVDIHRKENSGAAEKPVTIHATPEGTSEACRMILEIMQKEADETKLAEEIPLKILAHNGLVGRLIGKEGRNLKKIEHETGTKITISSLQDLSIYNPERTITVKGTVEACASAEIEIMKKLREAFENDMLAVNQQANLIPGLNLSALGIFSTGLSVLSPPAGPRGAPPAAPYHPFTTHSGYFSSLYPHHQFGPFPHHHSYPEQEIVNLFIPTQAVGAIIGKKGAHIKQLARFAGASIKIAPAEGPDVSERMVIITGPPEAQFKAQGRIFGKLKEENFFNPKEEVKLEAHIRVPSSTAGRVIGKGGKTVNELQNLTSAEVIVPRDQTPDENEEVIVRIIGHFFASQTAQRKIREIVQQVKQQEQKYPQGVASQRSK
UniProt Q9UKL0: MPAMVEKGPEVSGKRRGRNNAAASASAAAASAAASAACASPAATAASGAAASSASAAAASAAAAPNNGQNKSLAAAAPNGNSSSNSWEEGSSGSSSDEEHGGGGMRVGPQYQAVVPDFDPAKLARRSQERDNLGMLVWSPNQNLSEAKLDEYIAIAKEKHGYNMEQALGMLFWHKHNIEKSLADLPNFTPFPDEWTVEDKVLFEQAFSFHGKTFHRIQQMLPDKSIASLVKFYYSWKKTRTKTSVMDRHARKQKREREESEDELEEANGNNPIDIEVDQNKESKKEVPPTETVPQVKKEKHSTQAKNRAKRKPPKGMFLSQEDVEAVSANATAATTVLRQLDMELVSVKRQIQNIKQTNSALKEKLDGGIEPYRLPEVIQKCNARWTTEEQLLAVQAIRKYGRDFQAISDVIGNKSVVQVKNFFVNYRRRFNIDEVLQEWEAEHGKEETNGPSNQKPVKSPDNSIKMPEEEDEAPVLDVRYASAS

Experiments:
[1] = molecular target: Flag-tagged ZNF217_(1-272) truncation (human) (UniProt O75362); assay: co-IP; exogenous co-IP: anti-Flag IP from RIPA lysates of KOPN-8 and SUP-B15 cells with ectopic Flag-tagged ZNF217 (or ZNF217 1-272) or an empty vector; Protein A/G magnetic beads, overnight at 4 °C; wash 10 mM Tris-HCl pH 7.5, 1 mM EDTA, 150 mM NaCl, 1% Triton X-100, 0.2 mM sodium orthovanadate; Western blot
[2] = molecular target: Flag-tagged ZNF217 (zinc finger protein 217) (human) (UniProt O75362); assay: as above
[3] = molecular target: ZNF217 (zinc finger protein 217), endogenous (human (endogenous in KOPN-8 and SUP-B15)) (UniProt O75362); assay: co-IP; endogenous co-IP: anti-ZNF217 IP (IgG control) from RIPA lysates of KOPN-8 and SUP-B15 cells; Protein A/G magnetic beads, overnight at 4 °C; wash 10 mM Tris-HCl pH 7.5, 1 mM EDTA, 150 mM NaCl, 1% Triton X-100, 0.2 mM sodium orthovanadate; Western blot

Substance | binding [1] | binding [2] | binding [3]
histone deacetylase 1 (HDAC1) (from UniProt Q13547 1-482) (enzyme) | binds |  | 
PCIF1 (from UniProt Q9H4Z3 1-704) |  | no binding | 
HDAC2 (from UniProt Q92769 1-488) (enzyme) | binds |  | 
IGF2BP2 (from UniProt Q9Y6M1 1-599) |  | no binding | 
CoREST (Co-repressor of Repressor Element 1 Silencing Transcription factor) (from UniProt Q9UKL0 1-485) | binds | binds | binds
